Holding throughout (assay): co-IP
For test [1], the target named is V5-tagged NP of A/WSN/33 (WSN, H1N1) virus (influenza A virus A/WSN/33 (H1N1)) (UniProt P15682).
In test [2] the target is Myc-tagged PIAS1 (protein inhibitor of activated STAT 1) (human) (UniProt O75925).
The target of test [3] is IAV NP in WSN (H1N1) virus-infected cells (influenza A virus A/WSN/33 (H1N1)) (UniProt P15682).
Test [4] addresses IAV PB1 in WSN (H1N1) virus-infected cells (influenza A virus A/WSN/33 (H1N1)) (UniProt P03430).
Test [5] deals with IAV PB2 in WSN (H1N1) virus-infected cells (influenza A virus A/WSN/33 (H1N1)) (UniProt P03427).

Sequences of proteins named here, by UniProt entry; tags and fusion partners are left off. A change or cut given only in a name is not applied to a line headed by its entry. A line that says so, or that is headed by a name, gives the form on record, which may keep a tag or linker. Residues count along the entry.
UniProt P15682: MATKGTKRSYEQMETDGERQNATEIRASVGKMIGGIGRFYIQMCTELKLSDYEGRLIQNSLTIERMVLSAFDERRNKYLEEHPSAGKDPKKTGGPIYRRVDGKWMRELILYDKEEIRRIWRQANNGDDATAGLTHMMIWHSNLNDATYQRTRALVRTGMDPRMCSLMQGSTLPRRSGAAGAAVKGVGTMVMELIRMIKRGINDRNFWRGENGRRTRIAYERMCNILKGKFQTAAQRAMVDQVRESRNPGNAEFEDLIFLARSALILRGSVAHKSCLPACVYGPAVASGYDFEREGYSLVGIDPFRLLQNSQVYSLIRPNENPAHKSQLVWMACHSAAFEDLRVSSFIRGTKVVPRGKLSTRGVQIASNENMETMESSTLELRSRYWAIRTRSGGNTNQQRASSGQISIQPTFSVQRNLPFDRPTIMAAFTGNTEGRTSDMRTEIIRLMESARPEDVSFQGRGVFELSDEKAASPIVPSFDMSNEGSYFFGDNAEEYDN
UniProt O75925: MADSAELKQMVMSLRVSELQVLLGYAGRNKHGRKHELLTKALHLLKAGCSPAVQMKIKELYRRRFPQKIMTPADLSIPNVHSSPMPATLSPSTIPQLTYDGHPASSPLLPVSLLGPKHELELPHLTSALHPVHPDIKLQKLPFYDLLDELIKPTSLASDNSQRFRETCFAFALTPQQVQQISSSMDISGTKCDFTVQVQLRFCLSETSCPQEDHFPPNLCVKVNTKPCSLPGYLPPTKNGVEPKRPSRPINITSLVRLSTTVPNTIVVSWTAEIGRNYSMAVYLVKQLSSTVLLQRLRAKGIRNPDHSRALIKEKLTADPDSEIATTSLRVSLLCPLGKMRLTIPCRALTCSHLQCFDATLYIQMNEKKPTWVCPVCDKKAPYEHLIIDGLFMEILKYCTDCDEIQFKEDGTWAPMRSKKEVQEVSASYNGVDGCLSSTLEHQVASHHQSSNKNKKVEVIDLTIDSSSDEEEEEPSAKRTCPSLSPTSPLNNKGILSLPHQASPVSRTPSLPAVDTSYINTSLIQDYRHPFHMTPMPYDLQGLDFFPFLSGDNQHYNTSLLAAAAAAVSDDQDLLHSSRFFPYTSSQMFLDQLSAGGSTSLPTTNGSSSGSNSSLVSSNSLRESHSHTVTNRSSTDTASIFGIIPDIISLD
UniProt P03430: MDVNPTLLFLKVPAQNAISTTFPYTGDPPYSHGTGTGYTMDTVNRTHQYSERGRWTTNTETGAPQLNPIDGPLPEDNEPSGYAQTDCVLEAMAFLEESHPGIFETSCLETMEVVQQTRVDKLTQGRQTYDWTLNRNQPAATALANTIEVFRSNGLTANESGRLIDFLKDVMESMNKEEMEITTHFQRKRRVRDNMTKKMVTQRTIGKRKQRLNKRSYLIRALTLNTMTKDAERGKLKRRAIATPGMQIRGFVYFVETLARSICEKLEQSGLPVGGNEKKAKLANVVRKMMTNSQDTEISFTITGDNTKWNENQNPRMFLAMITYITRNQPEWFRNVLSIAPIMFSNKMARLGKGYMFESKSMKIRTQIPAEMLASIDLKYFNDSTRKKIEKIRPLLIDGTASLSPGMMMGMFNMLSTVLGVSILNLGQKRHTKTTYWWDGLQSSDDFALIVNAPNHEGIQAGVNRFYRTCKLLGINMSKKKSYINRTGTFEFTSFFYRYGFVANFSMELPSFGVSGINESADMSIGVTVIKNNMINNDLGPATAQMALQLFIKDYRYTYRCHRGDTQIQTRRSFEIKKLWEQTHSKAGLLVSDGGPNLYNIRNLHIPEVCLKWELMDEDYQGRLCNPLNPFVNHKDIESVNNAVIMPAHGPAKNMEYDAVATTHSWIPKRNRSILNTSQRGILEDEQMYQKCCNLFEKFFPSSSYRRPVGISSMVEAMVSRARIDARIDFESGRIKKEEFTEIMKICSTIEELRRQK
UniProt P03427: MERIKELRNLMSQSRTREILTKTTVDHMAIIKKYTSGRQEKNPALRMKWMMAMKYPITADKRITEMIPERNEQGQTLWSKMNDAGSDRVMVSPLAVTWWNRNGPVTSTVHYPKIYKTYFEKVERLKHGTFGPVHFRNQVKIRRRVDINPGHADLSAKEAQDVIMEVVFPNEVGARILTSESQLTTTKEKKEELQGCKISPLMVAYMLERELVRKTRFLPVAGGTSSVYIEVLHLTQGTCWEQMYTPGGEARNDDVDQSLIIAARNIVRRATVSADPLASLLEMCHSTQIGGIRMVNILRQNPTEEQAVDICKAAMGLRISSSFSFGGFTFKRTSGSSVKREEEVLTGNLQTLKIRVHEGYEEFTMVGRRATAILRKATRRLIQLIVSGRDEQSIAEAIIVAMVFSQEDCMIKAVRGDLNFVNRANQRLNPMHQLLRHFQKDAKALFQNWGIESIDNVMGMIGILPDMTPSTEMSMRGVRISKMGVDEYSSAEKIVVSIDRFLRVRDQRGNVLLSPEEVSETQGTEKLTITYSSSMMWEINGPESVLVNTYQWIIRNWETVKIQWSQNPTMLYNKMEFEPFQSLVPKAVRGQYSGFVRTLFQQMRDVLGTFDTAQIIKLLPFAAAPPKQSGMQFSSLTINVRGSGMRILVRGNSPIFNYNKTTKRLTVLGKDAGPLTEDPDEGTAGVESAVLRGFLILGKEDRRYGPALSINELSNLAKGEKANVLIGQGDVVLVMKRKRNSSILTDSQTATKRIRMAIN
Flag-PIASxα (O75928-2, form named): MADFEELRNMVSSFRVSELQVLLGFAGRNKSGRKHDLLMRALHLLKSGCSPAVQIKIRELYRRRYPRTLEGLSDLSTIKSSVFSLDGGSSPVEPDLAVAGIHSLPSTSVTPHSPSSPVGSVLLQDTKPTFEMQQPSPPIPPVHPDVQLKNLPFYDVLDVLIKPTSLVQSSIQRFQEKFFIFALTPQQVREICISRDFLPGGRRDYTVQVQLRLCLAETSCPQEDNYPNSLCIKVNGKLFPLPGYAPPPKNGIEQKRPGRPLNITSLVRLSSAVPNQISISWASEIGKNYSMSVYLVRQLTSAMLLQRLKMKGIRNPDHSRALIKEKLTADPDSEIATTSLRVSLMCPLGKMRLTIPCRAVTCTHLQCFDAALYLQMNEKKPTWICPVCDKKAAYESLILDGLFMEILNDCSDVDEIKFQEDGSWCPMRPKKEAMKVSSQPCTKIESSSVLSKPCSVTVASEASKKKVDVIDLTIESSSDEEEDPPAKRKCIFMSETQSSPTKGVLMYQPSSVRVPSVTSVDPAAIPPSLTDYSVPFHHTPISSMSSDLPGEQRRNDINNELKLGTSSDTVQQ
UniProt P03454, residues 18-565: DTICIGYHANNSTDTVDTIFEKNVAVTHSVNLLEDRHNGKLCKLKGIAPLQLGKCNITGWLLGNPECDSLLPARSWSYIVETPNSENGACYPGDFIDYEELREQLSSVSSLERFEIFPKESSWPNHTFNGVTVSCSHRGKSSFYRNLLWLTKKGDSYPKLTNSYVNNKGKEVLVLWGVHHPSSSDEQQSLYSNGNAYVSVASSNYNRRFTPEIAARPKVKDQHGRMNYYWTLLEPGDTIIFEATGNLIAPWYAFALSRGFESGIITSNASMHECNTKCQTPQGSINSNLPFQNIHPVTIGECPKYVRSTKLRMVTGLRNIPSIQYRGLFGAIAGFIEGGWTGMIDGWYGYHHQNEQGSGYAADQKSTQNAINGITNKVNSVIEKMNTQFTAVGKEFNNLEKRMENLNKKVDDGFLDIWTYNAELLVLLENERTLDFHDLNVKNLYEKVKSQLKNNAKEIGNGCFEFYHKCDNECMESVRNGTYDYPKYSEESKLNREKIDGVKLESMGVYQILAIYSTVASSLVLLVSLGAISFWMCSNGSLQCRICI
UniProt P05777: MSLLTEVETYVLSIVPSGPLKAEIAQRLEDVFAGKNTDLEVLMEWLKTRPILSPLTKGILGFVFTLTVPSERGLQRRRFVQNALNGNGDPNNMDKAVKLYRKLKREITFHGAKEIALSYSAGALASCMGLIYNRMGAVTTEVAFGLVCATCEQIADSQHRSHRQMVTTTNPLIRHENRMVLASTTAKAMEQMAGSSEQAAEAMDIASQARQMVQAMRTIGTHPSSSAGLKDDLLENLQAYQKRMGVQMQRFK
UniProt P03470: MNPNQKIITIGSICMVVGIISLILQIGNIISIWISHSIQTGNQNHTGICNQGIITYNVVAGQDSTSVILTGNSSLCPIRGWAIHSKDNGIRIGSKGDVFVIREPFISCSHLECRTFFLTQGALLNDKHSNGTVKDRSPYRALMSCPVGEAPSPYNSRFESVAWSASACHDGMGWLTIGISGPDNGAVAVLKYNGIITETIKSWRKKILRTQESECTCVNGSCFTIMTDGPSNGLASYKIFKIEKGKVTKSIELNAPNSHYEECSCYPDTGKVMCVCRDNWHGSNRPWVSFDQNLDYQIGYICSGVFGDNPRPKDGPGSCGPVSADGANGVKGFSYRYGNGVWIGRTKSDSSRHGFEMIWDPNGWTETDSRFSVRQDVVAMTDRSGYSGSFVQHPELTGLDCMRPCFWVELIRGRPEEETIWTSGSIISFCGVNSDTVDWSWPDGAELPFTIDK

These are yes or no findings as the source states them, for the method shown. Binding seen in cells or lysates may run through a third protein. Some binding calls cover weakened binding; strength is not graded here.

With “Flag-PIASxα (from UniProt O75928-2 1-572)”, in test [1], the binding result is on record as “binds”.

For “HA of WSN (H1N1) virus (from UniProt P03454)”, the binding result in test [2] is “no binding”.

Take “M1 of WSN (H1N1) virus (from UniProt P05777 1-252)”: in test [2], the binding result is “no binding”.

For “Myc-tagged PIAS1 (protein inhibitor of activated STAT 1) (from UniProt O75925 1-651)”, the binding result in test [3], in test [4], in test [1] and in test [5] was “binds” in each case.

With “NA of WSN (H1N1) virus (from UniProt P03470 1-453)”, the binding result in test [2] is listed as “no binding”.

With “V5-tagged NP of A/WSN/33 (WSN, H1N1) virus (from UniProt P15682 1-498)”, the binding entry in test [2] is given as “binds”.

Take “WSNPB1 (polymerase basic protein 1 of WSN (H1N1) virus) (from UniProt P03430 1-757)”: the binding result in test [2] is listed as “binds”.

Regarding “WSNPB2 (polymerase basic protein 2 of WSN (H1N1) virus) (from UniProt P03427 1-759)”, the binding entry in test [2] is given as “binds”.
